# Where “and” joins values, the source holds several entries; their conditions need not be identical. Identical values can stand only once. Some compounds were tested as several samples or in several runs, with calls that do not always agree. Calls of active or inactive are those of the source. Unless noted, the call rests on the fitted dose curve; in most records, active means well fitted curve in the direction sought with a large enough effect in the repeat runs; inconclusive means weak or mixed curves; inactive means no such curve, though single readings can be large; an effect the other way counts as inactive or inconclusive.
# Assays:
# [1] = qHTS assay to identify small molecule antagonists of the androgen receptor (AR) signaling pathway - cell viability counter screen (AID 743033; further: nearly all actives have a fitted effect of over 45% in size; on activity change, negative = cytotoxicity: on the % scale 0 is the no-effect control and ±100 the full control effect); conditions: AR-bla HEK293 viability, CellTiter-Glo luminescence, 16 h; activity change, negative = cytotoxicity: at 58.5 µM (top of the series) unless noted
# [2] = qHTS assay to identify small molecule antagonists of the androgen receptor (AR) signaling pathway using the MDA cell line - cell viability counter screen (AID 743041; further: nearly all actives have a fitted effect of over 45% in size); conditions: MDA-kb2 viability, CellTiter-Fluor, 16 h, cells co-treated with R1881 androgen agonist; viability change, negative = cytotoxic: at 70.3 µM (top of the series) unless noted
# Summary of the method: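 Cytotoxicity counter screen: MDA-kb2 AR-luc cells, compound + R1881, 16 h, 37C, 0% CO2; CellTiter-Fluor added at 15.5 h, fluorescence read after 30 min.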
# [3] = target: Estrogen receptor (Homo sapiens) (UniProt P03372); assay: qHTS assay to identify small molecule agonists of the estrogen receptor alpha (ER-alpha) signaling pathway using the BG1 cell line (AID 743079); conditions: BG1Luc4E2 cells, ERE-luciferase agonist, 22 h; activation: at 70.3 µM (top of the series) unless noted; further: nearly all actives have a fitted effect of over 20% in size; on activation: on the % scale 0 is the no-effect control and ±100 the full control effect
# [4] = qHTS assay to identify small molecule antagonists of the thyroid receptor (TR) signaling pathway - cell viability counter screen (AID 743064); conditions: GH3.TRE-Luc viability, CellTiter-Fluor, 24 h; activity change, negative = cytotoxic: at 70.3 µM (top of the series) unless noted; further: nearly all actives have a fitted effect of over 50% in size; on activity change, negative = cytotoxic: on the % scale 0 is the no-effect control and ±100 the full control effect
# Summary of the method: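 In-well cytotoxicity read by CellTiter-Fluor (30 min, 37 C) following 23.5 h exposure of GH3 cells bearing a TRE-luciferase sensor. Compounds were added alongside 1 nM (final) T3 to drive TR transactivation.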
# [5] = qHTS assay to identify small molecule antagonists of the estrogen receptor alpha (ER-alpha) signaling pathway - cell viability counter screen (AID 743074; calls by dose curve;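 further: HEK293 cells carrying ER-alpha-UAS-bla reporter stimulated with 17beta-estradiol; nearly all actives have a fitted effect of over 45% in size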)
# [6] = target: Aryl hydrocarbon receptor (Homo sapiens) (UniProt P35869); assay: qHTS assay to identify small molecule that activate the aryl hydrocarbon receptor (AhR) signaling pathway (AID 743085); further: nearly all actives have a fitted effect of over 15% in size;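 on activation: HG2L7.5c1 human HepG2 liver cells with stably integrated DRE-driven firefly reporter; on the % scale 0 is the no-effect control and ±100 the full control effect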
# Summary of the method: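 Luminescence (ONE-Glo) from a dioxin-responsive-element luciferase reporter in HG2L7.5c1 HepG2 cells after 24 hr compound exposure at 37C; viability measured by CellTiter-Fluor fluorescence beforehand.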
# [7] = qHTS assay to identify small molecule antagonists of the thyroid receptor (TR) signaling pathway (AID 743065); further: nearly all actives have a fitted effect of over 55% in size
# Summary of the method: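 GH3.TRE-Luc rat pituitary cells (two TREs driving luciferase) were dosed with compound, then stimulated with 1 nM T3 (final) for 23.5 h at 37 C. ONE-Glo luminescence was the read-out, with CellTiter-Fluor fluorescence as the cytotoxicity counter-screen.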
# [8] = target: Estrogen receptor (Homo sapiens) (UniProt P03372); assay: qHTS assay to identify small molecule agonists of the estrogen receptor alpha (ER-alpha) signaling pathway (AID 743075; calls by dose curve;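 further: HEK293 GripTite cells with ER-alpha and UAS-driven beta-lactamase reporter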)
# [9] = target: Peroxisome proliferator-activated receptor gamma (Homo sapiens) (UniProt P37231); assay: qHTS assay to identify small molecule agonists of the peroxisome proliferator-activated receptor gamma (PPARg) signaling pathway (AID 743094; active means well fitted activation curve with a large enough effect in the signal ratio in the repeat runs, not every such curve was filed as active; inconclusive means weak or mixed curves, or effect the other way; inactive means no such curve, though single readings can be large or run the other way; the % refers to the signal ratio); conditions: HEK293H PPARg-UAS-bla, beta-lactamase FRET ratio, 17 h
# Summary of the method: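 Fluorescence-based beta-lactamase readout in HEK293H PPARg UAS-bla cells after 17 h compound exposure (37C) and 1 h B/G FRET substrate incubation at room temperature.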
# [10] = qHTS assay to identify small molecule antagonists of the estrogen receptor alpha (ER-alpha) signaling pathway using the BG1 cell line (AID 743080; calls by dose curve;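 on all read-outs here: BG1 cells stimulated with 17beta-estradiol alongside compound; nearly all actives have a fitted effect of over 25% in size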); conditions: BG1Luc4E2 ERE-luciferase antagonist mode, luminescence; for Potency: activity change, negative = inhibition: at 70.3 µM (top of the series) unless noted
# Summary of the method: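 Seeding, 24 h rest, compound transfer from DMSO, 17beta-estradiol addition, 21.5 h incubation, CellTiter-Fluor (30 min, 37 C), then ONE-Glo (30 min, room temperature): this sequence was run on BG1-Luc-4E2 reporter cells.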
# [11] = qHTS assay to identify small molecule antagonists of the estrogen receptor alpha (ER-alpha) signaling pathway using the BG1 cell line - cell viability counter screen (AID 743081); conditions: BG1Luc4E2 viability, CellTiter-Fluor, 22 h; activity change, negative = cytotoxicity: at 70.3 µM (top of the series);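 further: compound given together with 17beta-estradiol as the ER stimulus; nearly all actives have a fitted effect of over 45% in size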
# [12] = qHTS assay to identify aromatase inhibitors - cell viability counter screen (AID 743084); conditions: MCF-7 aro ERE viability, CellTiter-Fluor, 24 h; activity change, negative = cytotoxicity: at 70.3 µM (top of the series) unless noted;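 further: cells stimulated with testosterone during compound exposure; nearly all actives have a fitted effect of over 55% in size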
# [13] = test system: thyroid hormone receptor (rat, GH3 cells); assay: qHTS assay to identify small molecule agonists of the thyroid receptor (TR) signaling pathway (AID 743066; calls by dose curve); conditions: GH3.TRE-Luc cells, TR agonist luciferase, 24 h; activation: at 83.9 µM (top of the series) unless noted
# [14] = qHTS assay to identify small molecule that activate the aryl hydrocarbon receptor (AhR) signaling pathway - cell viability counter screen (AID 743086); further: nearly all actives have a fitted effect of over 45% in size
# Summary of the method: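 HepG2-AhR-luc (HG2L7.5c1) cells, 4000/well, treated 24 h at 37 C with compound; viability measured as CellTiter-Fluor fluorescence after 30 min in the same wells as the luciferase read.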
# [15] = target: Estrogen receptor (Homo sapiens) (UniProt P03372); assay: qHTS assay to identify small molecule antagonists of the estrogen receptor alpha (ER-alpha) signaling pathway (AID 743069; active means well fitted curve in the direction sought with a large enough effect in the signal ratio in the repeat runs, not every such curve was filed as active; inconclusive means weak or mixed curves, or effect the other way; inactive means no such curve, though single readings can be large or run the other way; the % refers to the signal ratio); conditions: HEK293 ER-alpha-UAS-bla, beta-lactamase ratio, antagonist mode; activity, negative = inhibition: at 69.4 µM (top of the series) unless noted
# Summary of the method: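 Beta-lactamase FRET fluorescence is read after 2 hr at room temperature with LiveBLAzer B/G substrate. Before that, ER-alpha-bla HEK293 cells sit 4 hr after plating, then receive compound plus 17beta-estradiol and incubate 18 hr at 37C.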
# Aromatase (Homo sapiens) = Aromatase (Homo sapiens) (UniProt P11511); assay: qHTS assay to identify aromatase inhibitors (AID 743083); conditions: MCF-7 aro ERE, testosterone-driven ERE luciferase, 24 h; activity, negative = inhibition: at 70.3 µM (top of the series); further: nearly all actives have a fitted effect of over 55% in size
# [16] = activation: at 57 µM (top of the series) unless noted
# Potency means the concentration at half of the fitted maximal effect; tags describe the fitted curve by direction and shape or compound fluorescence and quenching.
# Chain of UniProt P37231 (P37231 whole entry, looked up): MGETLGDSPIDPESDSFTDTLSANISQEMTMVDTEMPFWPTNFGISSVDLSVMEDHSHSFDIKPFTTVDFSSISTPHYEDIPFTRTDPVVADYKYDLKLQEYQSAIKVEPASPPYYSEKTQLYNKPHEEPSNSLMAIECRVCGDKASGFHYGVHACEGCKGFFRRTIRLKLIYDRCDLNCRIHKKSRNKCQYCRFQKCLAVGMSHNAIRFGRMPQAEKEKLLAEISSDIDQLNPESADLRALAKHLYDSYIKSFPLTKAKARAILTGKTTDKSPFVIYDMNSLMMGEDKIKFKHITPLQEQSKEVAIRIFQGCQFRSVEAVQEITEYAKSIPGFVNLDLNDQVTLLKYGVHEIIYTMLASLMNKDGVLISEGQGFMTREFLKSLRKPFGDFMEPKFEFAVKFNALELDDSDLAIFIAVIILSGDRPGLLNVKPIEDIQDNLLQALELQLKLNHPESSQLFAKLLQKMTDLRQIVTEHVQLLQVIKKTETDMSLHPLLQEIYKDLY
# Chain of UniProt P11511 (P11511 whole entry, looked up): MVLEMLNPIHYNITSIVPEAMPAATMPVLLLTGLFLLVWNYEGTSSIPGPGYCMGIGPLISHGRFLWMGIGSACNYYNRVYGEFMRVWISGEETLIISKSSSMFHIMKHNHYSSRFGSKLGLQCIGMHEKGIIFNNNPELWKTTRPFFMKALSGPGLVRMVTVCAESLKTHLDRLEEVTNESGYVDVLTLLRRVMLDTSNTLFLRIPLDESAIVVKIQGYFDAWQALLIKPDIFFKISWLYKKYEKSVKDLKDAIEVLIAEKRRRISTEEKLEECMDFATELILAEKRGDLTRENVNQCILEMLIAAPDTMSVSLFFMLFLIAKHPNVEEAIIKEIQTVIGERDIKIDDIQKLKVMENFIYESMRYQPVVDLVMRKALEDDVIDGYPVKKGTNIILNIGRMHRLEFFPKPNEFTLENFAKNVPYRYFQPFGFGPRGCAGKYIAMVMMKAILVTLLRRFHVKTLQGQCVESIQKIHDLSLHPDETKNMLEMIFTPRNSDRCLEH
# Chain of UniProt P35869 (P35869 whole entry, looked up): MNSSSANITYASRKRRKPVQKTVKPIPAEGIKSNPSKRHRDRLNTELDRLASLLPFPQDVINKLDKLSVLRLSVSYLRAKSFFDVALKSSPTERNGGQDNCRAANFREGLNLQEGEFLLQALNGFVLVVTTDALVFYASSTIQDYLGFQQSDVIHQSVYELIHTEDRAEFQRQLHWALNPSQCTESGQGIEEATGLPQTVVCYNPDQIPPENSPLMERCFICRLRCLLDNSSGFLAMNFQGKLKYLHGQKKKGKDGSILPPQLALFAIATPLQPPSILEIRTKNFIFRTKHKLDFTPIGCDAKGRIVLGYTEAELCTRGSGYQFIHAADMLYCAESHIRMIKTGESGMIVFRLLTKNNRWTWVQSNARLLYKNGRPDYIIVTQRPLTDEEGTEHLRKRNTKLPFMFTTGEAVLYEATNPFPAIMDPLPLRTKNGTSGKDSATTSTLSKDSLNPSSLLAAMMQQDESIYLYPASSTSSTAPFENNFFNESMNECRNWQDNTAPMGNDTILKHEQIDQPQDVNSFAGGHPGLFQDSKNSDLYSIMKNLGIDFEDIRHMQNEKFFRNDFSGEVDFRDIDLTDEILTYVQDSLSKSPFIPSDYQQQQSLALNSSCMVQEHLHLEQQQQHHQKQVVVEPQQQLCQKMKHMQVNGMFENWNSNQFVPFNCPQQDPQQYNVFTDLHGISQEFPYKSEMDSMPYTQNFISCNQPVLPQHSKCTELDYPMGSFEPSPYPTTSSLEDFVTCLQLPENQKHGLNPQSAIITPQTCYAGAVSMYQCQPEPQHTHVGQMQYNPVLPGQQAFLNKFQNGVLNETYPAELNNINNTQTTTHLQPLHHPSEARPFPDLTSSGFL
# Chain of UniProt P03372 (P03372 whole entry, looked up): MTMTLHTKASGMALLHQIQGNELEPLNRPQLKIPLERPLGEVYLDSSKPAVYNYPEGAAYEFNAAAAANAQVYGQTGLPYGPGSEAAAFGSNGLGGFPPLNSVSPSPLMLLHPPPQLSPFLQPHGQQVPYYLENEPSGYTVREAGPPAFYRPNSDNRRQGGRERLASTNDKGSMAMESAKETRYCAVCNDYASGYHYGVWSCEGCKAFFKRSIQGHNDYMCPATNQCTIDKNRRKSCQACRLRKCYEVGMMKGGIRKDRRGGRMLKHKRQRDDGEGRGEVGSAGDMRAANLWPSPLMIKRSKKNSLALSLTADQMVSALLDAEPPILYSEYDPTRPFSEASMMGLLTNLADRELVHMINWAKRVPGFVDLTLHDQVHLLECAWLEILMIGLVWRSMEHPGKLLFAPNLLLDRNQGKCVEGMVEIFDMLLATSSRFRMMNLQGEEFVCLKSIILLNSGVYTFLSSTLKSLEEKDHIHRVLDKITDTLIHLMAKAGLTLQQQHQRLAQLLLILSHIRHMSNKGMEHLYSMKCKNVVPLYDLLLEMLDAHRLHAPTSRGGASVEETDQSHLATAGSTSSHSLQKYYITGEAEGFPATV
compound,measurement,setting,value
O=NN(c1ccccc1)c1ccccc1,Potency,[1],inactive
same,Potency,[2],"inconclusive: 68.6 µM [cytotoxic, single point]"
same,Potency,[3],active: 47.4 µM
same,activation,[3],inconclusive: 1.55% [phenotype inactive]
Clc1ccc(C(OCCN2CCCCC2)c2ccccc2)cc1 (configuration not stated),Potency,[1],"inconclusive: 2.29 µM [cytotoxic, full curve, poor fit]"
same,Potency,[2],inconclusive: 0.0007 µM
same,Potency,[4],active: 9.02 µM
same,Potency,[5],inactive
same,Potency,[6],inactive
CCCCCCCCCCCCN=C(N)N,Potency,[1],"inconclusive: 2.14 µM [cytotoxic, partial curve, poor fit]"
same,"activity change, negative = cytotoxic",[4],inactive: -13.9% [at 3.79 µM]
same,Potency,[7],"inconclusive: 2.38 µM [inhibitor, partial curve]"
same,Potency,[5],"inconclusive: 1.52 µM [cytotoxic, partial curve, poor fit]"
CNC(=O)O/N=C(\SC)C(=O)N(C)C,Potency,[1],"inactive and inconclusive: 13.8 µM [cytotoxic, full curve]"
same,Potency,[2],inactive
same,Potency,[5],"inconclusive: 60 µM [cytotoxic, single point]"
same,Potency,[8],"inconclusive: 1.9 µM [falling, full curve]"
same,Potency,[3],"active: 66.7 µM and inconclusive: 21.7 µM [activator, partial curve, poor fit]"
same,activation,[9]; [16],inconclusive: 13.8% [at 78.9 µM]
CCNc1nc(Cl)nc(NCC)n1,"activity change, negative = cytotoxicity",[1],inconclusive: -35.9% [cytotoxic] [at 78.9 µM]
same,Potency,[4],"inconclusive: 68.2 µM [rising, single point]"
Oc1c(Cl)c(Cl)c(Cl)c(Cl)c1Cl,Potency,[1],"active: 21.4 µM and inconclusive: 21.8 µM [cytotoxic, single point]"
same,Potency,[2],inconclusive: 67.2 µM [cytotoxic]
same,Potency,[4],active: 26.8 µM and inconclusive: 30.6 µM [cytotoxic]
same,Potency,[5],"inconclusive: 2.7 µM [cytotoxic, full curve] and inconclusive: 1.73 µM [cytotoxic, partial curve, poor fit]"
same,Potency,[8],"inconclusive: 10.9 µM [falling, full curve]"
same,Potency,[3],"inconclusive: 23.8 µM [inhibitor, full curve] and inconclusive: 27.2 µM [inhibitor]"
same,Potency,[10],active: 59.9 µM and active: 27.2 µM
same,Potency,[11],"inconclusive: 67.2 µM [cytotoxic, single point]"
same,Potency,[12],inactive
same,Potency,[9]; [16],"inconclusive: 2.75 µM [inhibitor, full curve]"
same,activation,[9]; [16],inconclusive: 3.7%
Cc1ccc(N=CN(C)C=Nc2ccc(C)cc2C)c(C)c1,Potency,[1],"inconclusive: 49.2 µM [cytotoxic, single point]"
same,Potency,[4],"inconclusive: 68.9 µM [cytotoxic, single point] and active: 48.5 µM"
same,activation,[13],inconclusive: -8.66% [phenotype inactive]
same,Potency,[5],"inconclusive: 55.2 µM [cytotoxic, single point]"
same,Potency,[8],inactive
same,Potency,[3],"inconclusive: 43.2 µM [inhibitor, partial curve, poor fit]"
same,Potency,[12],"inconclusive: 54.7 µM [cytotoxic, partial curve] and inconclusive: 76.9 µM [cytotoxic, single point]"
same,Potency,[6],"active: 48.8 µM and inconclusive: 54.4 µM [activator, partial curve]"
CC[N+]1(C)CCCC1,Potency,[1],"inconclusive: 55.1 µM [cytotoxic, single point]"
same,Potency,[4],"inconclusive: 272 nM [rising, partial curve, poor fit] and inconclusive: 24.7 µM [rising, partial curve, poor fit]"
same,Potency,[7],inactive
same,Potency,[11],"inconclusive: 69.6 µM [cytotoxic, partial curve, poor fit]"
same,Potency,[14],"inconclusive: 38.5 µM [rising, partial curve, poor fit]"
CC(C)(C)c1ccc(CSc2cnn(C(C)(C)C)c(=O)c2Cl)cc1,Potency,[1],"inconclusive: 0.0055 µM [cytotoxic, full curve]"
same,Potency,[2],active: 0.0306 µM
same,Potency,[4],active: 54.5 µM
same,Potency,[15],active: 5.5 nM [inconclusive]
same,Potency,[5],"inconclusive: 0.0174 µM [cytotoxic, full curve]"
same,Potency,[8],"inconclusive: 0.0087 µM [falling, full curve]"
same,Potency,[3],"inconclusive: 0.0137 µM [inhibitor, full curve]"
same,Potency,[10],active: 0.0109 µM
same,Potency,[11],active: 27.3 µM
same,Potency,Aromatase (Homo sapiens),active: 61.1 µM
same,activation,[9]; [16],inconclusive: -9.76%
OC(c1ccc(Cl)cc1)(c1cncnc1)c1ccccc1Cl (configuration not stated),Potency,[1],"inconclusive: 49.8 µM [cytotoxic, partial curve, poor fit] and inconclusive: 27.5 µM [cytotoxic, partial curve]"
same,Potency,[7],"inconclusive: 55.4 µM [inhibitor, partial curve, poor fit]"
same,Potency,[15],"inconclusive: 39.6 µM [inhibitor, partial curve, poor fit] and active: 54.9 µM [inconclusive]"
same,Potency,[8],active: 17.7 µM [activator] and active: 61.6 µM [inconclusive]
same,Potency,[3],"inconclusive: 27.8 µM [activator, partial curve] and active: 9.69 µM"
same,Potency,[11],inactive
same,Potency,[14],"inconclusive: 61.1 µM [falling, single point]"
same,activation,[9]; at 57 µM (top of the series),inconclusive: -16.1%
same,activation,[9]; at 78.9 µM (top of the series),inconclusive: -11.3%
CC(C)(C)C(O)/C(=C\c1ccc(Cl)cc1Cl)n1cncn1 (configuration not stated),Potency,[1],inconclusive: 52.8 µM [cytotoxic]
same,Potency,[4],active: 83 µM
same,Potency,[13],"inconclusive: 37.1 µM [inhibitor, partial curve, poor fit]"
same,Potency,[3],"inconclusive: 74 µM [inhibitor, partial curve]"
same,Potency,[10],active: 74 µM
same,Potency,[12],active: 74 µM
same,Potency,[14],"inconclusive: 83 µM [falling, single point]"
same,activation,[9]; [16],inconclusive: -12.5% [at 78.9 µM]
CON(C)C(=O)Nc1ccc(Cl)c(Cl)c1,Potency,[1],"inconclusive: 49.2 µM [cytotoxic, partial curve, poor fit]"
same,Potency,[7],"inconclusive: 54.7 µM [inhibitor, partial curve] and inconclusive: 54.5 µM [inhibitor, partial curve, poor fit]"
same,Potency,[5],"inconclusive: 22 µM [rising, single point]"
same,activation,[3],inconclusive: -5.05% [phenotype inactive] [at 95 µM]
same,Potency,[14],inactive
C=CCN(CC=C)C(=O)C(Cl)Cl,Potency,[1],"inconclusive: 2.29 µM [cytotoxic, full curve, poor fit]"
same,Potency,[4],"inconclusive: 0.545 µM [rising, single point]"
same,Potency,[5],inactive
Oc1c(Br)cc(Br)cc1Br,Potency,[1],"inconclusive: 55.1 µM [cytotoxic, single point]"
same,Potency,[7],"inconclusive: 68.7 µM [inhibitor] and inconclusive: 68.6 µM [inhibitor, single point]"
same,Potency,[15],"active: 61.8 µM [inconclusive] and inconclusive: 5.49 µM [cytotoxic, partial curve, poor fit]"
same,Potency,[5],"inconclusive: 21.9 µM [cytotoxic, single point] and inconclusive: 54.9 µM [cytotoxic, single point]"
same,Potency,[11],inactive
same,Potency,[9]; [16],"inconclusive: 6.93 µM [inhibitor, partial curve, poor fit]"
Nc1ccc(Br)cc1,Potency,[1],"inconclusive: 61.5 µM [cytotoxic, single point]"
same,Potency,[4],inactive
same,Potency,[5],inactive
same,Potency,[8],inactive
same,Potency,[3],inactive
same,Potency,[12],"inconclusive: 68.5 µM [cytotoxic, single point]"
same,Potency,[6],active: 61 µM and active: 21.7 µM
same,activation,[9]; [16],inconclusive: -13.3%
OCC(O)CO,Potency,[1],"inconclusive: 26.8 µM [rising, single point]"
same,Potency,[4],"inconclusive: 18.8 µM [rising, partial curve, poor fit]"
same,Potency,[5],"inconclusive: 10.7 µM [rising, full curve, poor fit]"
same,Potency,[9]; [16],inactive
CN1C(=O)NC(=O)C(C)(C2=CCCCC2)C1=O (configuration not stated),Potency,[1],"inconclusive: 15.1 µM [cytotoxic, single point]"
same,Potency,[7],inactive
Nc1ccc(-c2ccc(N)c(Cl)c2)cc1Cl,Potency,[1],"inconclusive: 22 µM [cytotoxic, partial curve, poor fit] and inconclusive: 45.7 µM [cytotoxic, partial curve]"
same,Potency,[4],active: 30.8 µM and active: 18 µM and active: 30.6 µM
same,Potency,[5],"inconclusive: 62 µM [cytotoxic, single point] and active: 17.4 µM"
same,Potency,[8],active: 24.7 µM [inconclusive] and active: 20.4 µM [inconclusive] and active: 54.9 µM [inconclusive]
same,Potency,[3],"inconclusive: 6.14 µM [activator, full curve] and active: 9.04 µM and active: 6.86 µM"
same,Potency,[10],active: 64 µM
same,"activity change, negative = inhibition",[10]; at 70.3 µM (top of the series),inconclusive: -11.2%
same,"activity change, negative = inhibition",[10]; at 95 µM (top of the series),inconclusive: -21.9%
same,Potency,Aromatase (Homo sapiens),"inconclusive: 54.8 µM [inhibitor, single point] and inconclusive: 64 µM [inhibitor, single point] and inconclusive: 30.6 µM [inhibitor, partial curve, poor fit]"
same,Potency,[12],"inconclusive: 80.6 µM [cytotoxic, partial curve, poor fit]"
same,Potency,[14],"inconclusive: 12.8 µM [falling, partial curve]"
